Assay results published in PubChem BioAssay AID924 (National Center for Advancing Translational Sciences (NCATS), 2007).
Screen size: about 130,000 compounds; about 1,200 (0.92%) were called active. This list was built around the results that the source calls inconclusive (neither active nor inactive); the mix of calls is not that of the screen. The call rests on the fitted dose curve; in most records, active means well fitted cell-killing curve with a large enough effect; inconclusive means small, poorly fitted or top-dose-only effect; inactive means no such curve, though single readings can be large or run the other way. Where the call is inconclusive, the potency comes from a doubtful curve fit.

Assay: qHTS Screen for Compounds that Selectively Target Cancer Cells with p53 Mutations: Cytotoxicity of p53ts Cells at the Permissive Temperature; further: nearly all actives have a fitted effect of over 55% in size;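 on activity change, negative = cytotoxicity: 0% = DMSO and -100% = full killing by reference compound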
Details: H1299-p53A138V at 32C, ATP luminescence viability, 24 h; activity change, negative = cytotoxicity: at 46.1 µM (top of the series)
Method in brief: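 Viability by ATPlite luminescence after 24 h compound treatment (up to 46 uM) at the permissive 32C. Cells are H1299 carrying p53 A138V. Scale runs from DMSO basal to 100 uM tamoxifen as full kill; AC50 from Hill fits.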
Potency means the concentration at half of the fitted maximal effect; tags describe the fitted curve by direction and shape.

SMILES	Potency	activity change, negative = cytotoxicity
Oc1ccccc1-c1nc(-c2cccs2)c(-c2cccs2)[nH]1	inconclusive: 15.8 µM [cytotoxic, single point]	
CCc1ccc(OCC(=O)Nc2ccc3c(c2)c2ccccc2n3CC)cc1	inconclusive: 12.6 µM [cytotoxic, partial curve]	
Cc1cccc(-n2ccnc2SCC(=O)Nc2cccc3ccccc23)c1	inactive	
c1ccc2c(c1)[nH]c1nc(SCCN3CCOCC3)nnc12	inactive	
CC(=O)Nc1cc2nn(-c3ccccc3)nc2cc1Cl	inconclusive: 7.94 µM [cytotoxic, partial curve]	
N#Cc1c(N2CCCC2)nc(N)c2c(N)nc(N3CCCC3)cc12	active: 12.6 µM	
CCOC(=O)c1cc(-c2ccc(OC)cc2)n(CCC(=O)NCCc2ccccc2)c1C	inactive	
CCOc1ccc(NC(=O)c2ccco2)cc1	active: 10 µM	
Cc1ccc(CNC(=O)Cn2c(SCC(=O)Nc3ccc(F)cc3)nc3ccccc32)cc1	inconclusive: 25.1 µM [cytotoxic, single point]	
CCN(CC)c1ccc(-c2nc3cnccc3n2C)cc1	inconclusive: 12.6 µM [cytotoxic, partial curve]	
CCn1c(C)csc1=NC(=O)c1ccccc1O	inconclusive: 1.26 µM [cytotoxic, partial curve]	
COC(=O)c1ccc(Nc2ncnc3c2cnn3C)cc1	inconclusive: 11.2 µM [cytotoxic, partial curve, poor fit]	
COc1ccc(C2c3[nH]c4ccccc4c3CCN2C(=O)CCC2CCCC2)cc1 (stereo unspecified)	inconclusive: 2.51 µM [cytotoxic, full curve]	
CCS(=O)(=O)c1ncc(Cl)c(C(=O)N2CCN(c3ccc(OC)cc3)CC2)n1	inconclusive: 25.1 µM [cytotoxic, single point]	
COc1ccc(-c2ccc3c(n2)CCCN3C[C@H](O)CN2CCCc3nc(C)c(C)cc32)cc1		inactive: -3.9% [at 9.22 µM]
CC(C)c1ccc(-c2nn[nH]n2)cc1	active: 12.6 µM	
CCOc1ccc(C(=O)Nc2c(C(=O)Nc3ccccc3OC)oc3ccccc23)cc1OCC	inactive	
COc1ccc(CNC(=O)Cc2c(C(=O)O)c(C)cn2C)cc1	inactive	
COc1cccc2sc(NC(=O)c3ccc4c(c3)OCCO4)nc12	inconclusive: 3.16 µM [cytotoxic, partial curve]	
CN(Cc1ccccc1)c1nc2c(c(=O)[nH]c(=O)n2C)n1CCOc1ccccc1	inactive	
O=C(CCCCCn1c(=S)[nH]c2cc3c(cc2c1=O)OCO3)N1CCN(C2CCCCC2)CC1	inconclusive: 31.6 µM [cytotoxic, single point]	
CC(C)(C)c1ccc(CSC2=Nc3ccccc3C3=NC(CC(=O)NCc4cccs4)C(=O)N23)cc1 (stereo unspecified)	inconclusive: 31.6 µM [cytotoxic, single point]	
O=C1O/C(=C\Br)CC[C@@H]1c1cccc2ccccc12	active: 20 µM	

SMILES	Potency	activity change, negative = cytotoxicity
CCOC(=O)c1ccccc1NC(=O)c1c(F)c(F)c(F)c(F)c1F	inconclusive: 31.6 µM [cytotoxic, single point]	
CCC(C)c1ccc(OCC(=O)Nc2cccc3ccc(C)nc23)cc1 (stereo unspecified)	inconclusive: 15.8 µM [cytotoxic, single point]	
CC(CC(=O)O)(CC(=O)O)c1ccccc1		inactive: 8.63% [at 9.22 µM]
Oc1ccc(-c2nc(-c3ccc(F)cc3)c(-c3ccncc3)[nH]2)cc1	inactive	
Cc1cccc(S(=O)(=O)Nc2cccc(-c3ccc(N4CCCCC4)nn3)c2)c1	inconclusive: 15.8 µM [cytotoxic, partial curve]	
COc1ccc(Nc2oc(-c3ccc(COc4cccc(C)c4)o3)nc2C#N)cc1	inconclusive: 3.16 µM [cytotoxic, single point]	
O=C(O)c1ccc2cc(-c3ccc(O)c(C45CC6CC(CC(C6)C4)C5)c3)ccc2c1	active: 20 µM	
COc1ccc(C(=O)Nc2cccc(-c3cn4ccsc4n3)c2)cc1OC	inconclusive: 12.6 µM [cytotoxic, partial curve]	
CC(C)n1c(/C=C/c2ccccc2)nc2ccccc21	inconclusive: 28.2 µM [cytotoxic, single point]	
COc1ccc(-n2nc3c(N4CCC(C(=O)NCc5cccc(F)c5)CC4)nnc(C)c3c2C)cc1	inconclusive: 31.6 µM [cytotoxic, single point]	
Oc1ccc(Cc2nccc3cc(O)c(O)cc23)cc1O		inactive: 6.11% [at 9.22 µM]
Cc1c(C(=O)N(C)Cc2ccccc2)oc2ccc(S(=O)(=O)N3CCCC3)cc12	inconclusive: 0.251 µM [cytotoxic, full curve, poor fit]	
CC(=O)N1CCC2(CC1)CN(C(c1ccccc1)c1ccccc1)C2	inactive	
CCC(=O)[C@@H](c1ccccc1)c1ccccn1		inactive: -0.484% [at 9.22 µM]
Cc1cc(C)c2c(=O)n(-c3ccccc3)[nH]c2n1	inconclusive: 10 µM [cytotoxic, partial curve]	
CSc1ccc(C2c3[nH]c4ccccc4c3CCN2C(=O)CCc2ccccc2)cc1 (stereo unspecified)	inconclusive: 2 µM [cytotoxic, full curve, poor fit]	
O=C(c1ccc(F)cc1)C(CN1CCOCC1)c1ccccc1 (stereo unspecified)	inconclusive: 31.6 µM [cytotoxic, single point]	
CN(C(=O)CSc1nc2ccccc2n1CC(=O)NCc1ccc(F)cc1)c1ccc(F)cc1	inactive	
O=C(COc1cccc(NC(=O)c2ccco2)c1)c1ccc(F)cc1	inconclusive: 31.6 µM [cytotoxic, single point]	
CCS(=O)(=O)Nc1cc(-c2cn3ccc(C)cc3n2)ccc1C	inconclusive: 15.8 µM [cytotoxic, partial curve]	
Cc1cc(C)cc(C(=O)N2CC(=O)Nc3ccc(C)cc3C2c2ccccc2)c1 (stereo unspecified)	inactive	
Cc1nc(NCc2ccccc2)c2nc(-c3ccccc3)n(CC3CCN(C)CC3)c2n1	inactive	
Oc1ccc(Cl)cc1Sc1cc(Cl)ccc1O		inactive: -11.7% [at 9.22 µM]
